According to publication PMC7819943, “Rice protein-binding microarrays: a tool to detect cis-acting elements near promoter regions in rice”:
This is one part of the list.

Molecular target: T1, OsWOX13 (Oryza sativa, UniProt Q5QMM3 1-267)
T1 sequence: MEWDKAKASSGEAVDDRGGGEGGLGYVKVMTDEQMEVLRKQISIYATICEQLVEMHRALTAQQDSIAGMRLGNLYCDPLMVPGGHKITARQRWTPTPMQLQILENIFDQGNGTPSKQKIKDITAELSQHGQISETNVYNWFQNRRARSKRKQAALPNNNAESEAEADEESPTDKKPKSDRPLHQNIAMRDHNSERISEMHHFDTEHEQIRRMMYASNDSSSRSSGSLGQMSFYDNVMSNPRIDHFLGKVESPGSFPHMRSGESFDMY
Test: protein-binding microarray (RPBM); PBS, 2% BSA, 51.3 ng/ul salmon testes DNA, 50 uM zinc acetate, 200 nM TF, 25 C, 1 h; high values mean tight binding
Details: protein: recombinant; tags: N-terminal polyhistidine and DsRed monomer fusion (pET32a); label: CyDye5-dUTP incorporated in the synthesized complementary strand; 3' TTTTT single-stranded linker to array surface; dsDNA, one strand shown
Summary of the method: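 Binding signal here means per-feature fluorescence intensity in arbitrary units. The values were read on an Axon 4000B scanner after a custom Agilent array, double-stranded by primer extension with Cy5-dUTP, was incubated with 200 nM protein at 25 °C for 1 h in PBS with 2% BSA, salmon testes DNA and 50 µM zinc acetate, then washed. The proteins were transcription factors with an N-terminal polyhistidine tag and DsRed, expressed in E. coli BL21-CodonPlus and purified on Ni–NTA.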

Sequence	binding signal
ATATATATATATATATATATATATATATATATATCTCCTACGGAGTCACCTAGTGCAG	13500 fluorescence intensity (a.u.)
TATTAAGTCTAATTATTCCGTCATTAGCACATATAGGTTACGGAGTCACCTAGTGCAG	6060 fluorescence intensity (a.u.)
CATATGATGCCTCTGATTGTTCCTTGGCAGGCTATTCCCACGGAGTCACCTAGTGCAG	3220 fluorescence intensity (a.u.)
CTAATTTAGAACTGGATGTGACACATTCTATTACTATCCCCGGAGTCACCTAGTGCAG	4040 fluorescence intensity (a.u.)
AGCTAATTTCTCGCCTCTCCGACCAATTTGTAATCGATGGCGGAGTCACCTAGTGCAG	9680 fluorescence intensity (a.u.)
ATCATCATTGTGACAGATAATCATAGAAGAGAGAGAAACACGGAGTCACCTAGTGCAG	8540 fluorescence intensity (a.u.)
CACTTCCTAATTGATTAAGCCAAGCTCAGAGTGATTCGACCGGAGTCACCTAGTGCAG	49900 fluorescence intensity (a.u.)
CCACATAAATTAACAAAATTAAAGTCAGTAATAATACCTTCGGAGTCACCTAGTGCAG	21000 fluorescence intensity (a.u.)
CACAAACTTCAATGCAATGATTACTCCAAAATTAACTTATCGGAGTCACCTAGTGCAG	3190 fluorescence intensity (a.u.)
ATATATATATATATATATATATATATATATATTGGCAATTCGGAGTCACCTAGTGCAG	18200 fluorescence intensity (a.u.)
TTGGATTGAAGCCAAAATAGCCTAAGTTTACTATTGAAATCGGAGTCACCTAGTGCAG	7310 fluorescence intensity (a.u.)
CCAAATTACGGCAAATCATGGAACGGTAGAATCGCGACATCGGAGTCACCTAGTGCAG	28500 fluorescence intensity (a.u.)
GTTGATTGGGTAAATCATATGATCGTAATGTATTGTGAATCGGAGTCACCTAGTGCAG	64600 fluorescence intensity (a.u.)
TCAAGACATGATTTTCTTCTCTTTCCTCGTTTATTTACTTCGGAGTCACCTAGTGCAG	3730 fluorescence intensity (a.u.)
TAAAACAAATTATATATTCCACATGTAAATTGCGAGACGACGGAGTCACCTAGTGCAG	8550 fluorescence intensity (a.u.)
GCAGCCTTAATTAGCATTTCTAGAAAATTCTACTTCTTCCCGGAGTCACCTAGTGCAG	10100 fluorescence intensity (a.u.)
GGATACTTGGATGATTGGGCCTGGGAAAGTAAGCCTACTACGGAGTCACCTAGTGCAG	4980 fluorescence intensity (a.u.)
TTGAGATTGTAATTTGCGAACGATCTCGGTTGTGCTGAGACGGAGTCACCTAGTGCAG	14200 fluorescence intensity (a.u.)
ACCATTTTGTGATTTGTTGCTGCAAGCCTCATTATCGTTCCGGAGTCACCTAGTGCAG	7330 fluorescence intensity (a.u.)
AATCGTGAATGGTCAAATTTGTTTGTTATACTTTGTTTTGCGGAGTCACCTAGTGCAG	4700 fluorescence intensity (a.u.)
TGGGGATGGGGAATTGACCTGGGTAGGGGTGGTAATTGGGCGGAGTCACCTAGTGCAG	10100 fluorescence intensity (a.u.)

Sequence	binding signal
TTAAAATTATTTTATAATTAATATTTATTATTATTATTAGCGGAGTCACCTAGTGCAG	12400 fluorescence intensity (a.u.)
ATGTAATTTGTTTTCTTATTAGATTACGTTTAATATTTTACGGAGTCACCTAGTGCAG	10500 fluorescence intensity (a.u.)
ATATATGATATGGATGATTTCAATTTCGTAAGACTGTTTTCGGAGTCACCTAGTGCAG	4390 fluorescence intensity (a.u.)
TATAATTAATTTTATTTAATACTCAATACATATATTAAAGCGGAGTCACCTAGTGCAG	40500 fluorescence intensity (a.u.)
TTGATTGACTAAACTGTCACGTCAGCGTCATATTGACGAACGGAGTCACCTAGTGCAG	54900 fluorescence intensity (a.u.)
GACTGATGGCTCTGATGGAGGGTGATCACATTGGCCCTTTCGGAGTCACCTAGTGCAG	6730 fluorescence intensity (a.u.)
CATTCTAATTGCACCAGTCCCCGCCAATAATCAACGCATTCGGAGTCACCTAGTGCAG	22100 fluorescence intensity (a.u.)
CGATCTGAATGTTAATTAGTGGTTGGCAGGCAGGCGCCAACGGAGTCACCTAGTGCAG	7940 fluorescence intensity (a.u.)
ACAATTGACAAGAGGCAAGATACCTTTTGTGGTGGGTTGTCGGAGTCACCTAGTGCAG	10800 fluorescence intensity (a.u.)
GCCTTTAGATAATTAATCTACGGTCCAAACTATCCCAATACGGAGTCACCTAGTGCAG	6520 fluorescence intensity (a.u.)
GTTTCACTAAATTATTTGGAATGTTGCATGTGATATTCTTCGGAGTCACCTAGTGCAG	4100 fluorescence intensity (a.u.)
TCCCAAGTGGTGATTTGTTGCTGAAAGTGCTCCTCCTTTTCGGAGTCACCTAGTGCAG	4460 fluorescence intensity (a.u.)
GTAAATTACACTGGTAGTTCTTAAACTTGTAACGAAGTTTCGGAGTCACCTAGTGCAG	7520 fluorescence intensity (a.u.)
GTAGTTAATTAGCACATTCTCTCCCCTAAATTATTACTCCCGGAGTCACCTAGTGCAG	21300 fluorescence intensity (a.u.)
ACATATCTTAAGATTGATGAAGTCACCACGAACGCCTCGCCGGAGTCACCTAGTGCAG	11700 fluorescence intensity (a.u.)
ATTCTTAAATTGTTTTAACTAATACTTAATCAGCCATGAACGGAGTCACCTAGTGCAG	7790 fluorescence intensity (a.u.)
ACGGAACAATTTATTAGCACATGATTAAATAAATATTAGTCGGAGTCACCTAGTGCAG	6640 fluorescence intensity (a.u.)
ATGGTTCTGATGTCATTGATAGATTTGAGAGAACATGTACCGGAGTCACCTAGTGCAG	10700 fluorescence intensity (a.u.)
ATCTCAACAATCAATCGAATTAGACAAACAACTCATCAGGCGGAGTCACCTAGTGCAG	13500 fluorescence intensity (a.u.)
TGGAAGATTGGCACGGACGATCCCCGGAAGGCGACGTACGCGGAGTCACCTAGTGCAG	11600 fluorescence intensity (a.u.)
TGCCTAATTGATTAGTACTAGATACTTTCTGCATCACTACCGGAGTCACCTAGTGCAG	43100 fluorescence intensity (a.u.)

Sequence	binding signal
ACACGTGAAGGATAATAATTATGTCTCTCTGAAATTAAGTCGGAGTCACCTAGTGCAG	3800 fluorescence intensity (a.u.)
ATATTGATTAGGCTCTCGGCTCTCTATTTAACCAACTGAACGGAGTCACCTAGTGCAG	34300 fluorescence intensity (a.u.)
AGAAATTGAACGTGATTAACGGGGAGGGCACTAGTGAGGCCGGAGTCACCTAGTGCAG	53000 fluorescence intensity (a.u.)
AGTTAAATTAGAAAGTGGAACACTACCAAACAAGTTCACACGGAGTCACCTAGTGCAG	5980 fluorescence intensity (a.u.)
ATAACCAAATCATAAATTATATAAATGGGTTAAGAGAAAACGGAGTCACCTAGTGCAG	14700 fluorescence intensity (a.u.)
ATTTGATTTATTGTTAAATATACTTTCATGTACACATATACGGAGTCACCTAGTGCAG	23700 fluorescence intensity (a.u.)
AGCTAAATTGATTCGTGCACCCAAGTCAACAAGAAAACGTCGGAGTCACCTAGTGCAG	38900 fluorescence intensity (a.u.)
TATATATGACAGATAAACGCTGCGGTGCCCTAGTGTGTGTCGGAGTCACCTAGTGCAG	3150 fluorescence intensity (a.u.)
CAATAATTAAAACTCAATTAATCATACGCTAATAGCTTTTCGGAGTCACCTAGTGCAG	37300 fluorescence intensity (a.u.)
AAATAGTTTATACTCAATTAATTATATGCTAATAGCTCACCGGAGTCACCTAGTGCAG	12800 fluorescence intensity (a.u.)
AAAATTATGCGTCCTAATCATCAATCAACATATGAAGAAGCGGAGTCACCTAGTGCAG	20600 fluorescence intensity (a.u.)
ACGGCCCAATCACGCGCGCACGGCTCGGCCCGCGAGGCGTCGGAGTCACCTAGTGCAG	3480 fluorescence intensity (a.u.)
GCTCATCTATTCAATGAAATTGGCGGCTTACTGATTTGTTCGGAGTCACCTAGTGCAG	3210 fluorescence intensity (a.u.)
AGGAACAATTAAATTAAATTAAATTAAATTGCCTTAATATCGGAGTCACCTAGTGCAG	35300 fluorescence intensity (a.u.)
TATTAATTTGTAATTAATATTGAATAACGCTGCGTGAGTACGGAGTCACCTAGTGCAG	45900 fluorescence intensity (a.u.)
GTATGGTTAATGGACTACTAATTATTATAAACTTAGAGCACGGAGTCACCTAGTGCAG	28300 fluorescence intensity (a.u.)
AGTCAATCTTAACCTCTTGTTTTCTCTGCAATTGCATCTTCGGAGTCACCTAGTGCAG	4740 fluorescence intensity (a.u.)
CCTAATCTCTTAACATAATATACTTCACTCCCTTGGCACCCGGAGTCACCTAGTGCAG	3230 fluorescence intensity (a.u.)
GATTAATTAGGCTTAATAAATTCGTCTCGCAGTTTACAAGCGGAGTCACCTAGTGCAG	37400 fluorescence intensity (a.u.)
TAACTATCCATTAACATATGATTAAATATTAGCTTTAAAACGGAGTCACCTAGTGCAG	6240 fluorescence intensity (a.u.)
AAATTAAATCAAACTGATAATTTTCTGTTCGTCACATCGGCGGAGTCACCTAGTGCAG	17000 fluorescence intensity (a.u.)

Sequence	binding signal
GTTATGATTAATTGCGCCATTAGGATATTAATTAATCTGGCGGAGTCACCTAGTGCAG	54500 fluorescence intensity (a.u.)
CCAACAAATTGCCATTCTGCTGATTCAAGTGGCAGTTTTGCGGAGTCACCTAGTGCAG	18100 fluorescence intensity (a.u.)
AGATTTTACTAATTAACATGAGAGTTACTAGAGAGTTCCACGGAGTCACCTAGTGCAG	8670 fluorescence intensity (a.u.)
TTTGATTGATTAGTTTGGGGATAATGAAGAAAGTAATTTTCGGAGTCACCTAGTGCAG	47100 fluorescence intensity (a.u.)
ATGCAATCAGGTTAATTAACCAAATCAGCAGATTGCGTAGCGGAGTCACCTAGTGCAG	29700 fluorescence intensity (a.u.)
ATCAATTGAGTAACTATTTGGTGAACTCCTTAAACTTTTCCGGAGTCACCTAGTGCAG	3210 fluorescence intensity (a.u.)
GACGGGAGACCCAATCATAAATTGGAGGCGCCGGCCATCTCGGAGTCACCTAGTGCAG	5030 fluorescence intensity (a.u.)
TACTTACGGTAATTATTACTCCCTCCATCTACTTTTAATACGGAGTCACCTAGTGCAG	4010 fluorescence intensity (a.u.)
AACTAATACGTAATTAATCACATTCTAATGCATTGCTCCGCGGAGTCACCTAGTGCAG	9530 fluorescence intensity (a.u.)
CCAATCAACTTCTTTGATCATCCATGCATTCGTTACACTCCGGAGTCACCTAGTGCAG	4140 fluorescence intensity (a.u.)
AAATTTACGTAATTATAATTTATTTTGTTATGAGTTGTTTCGGAGTCACCTAGTGCAG	22400 fluorescence intensity (a.u.)
CTAATCGTATTGTAATCAATCATCAAAATTATTAGGGGCCCGGAGTCACCTAGTGCAG	24600 fluorescence intensity (a.u.)
TACAACACCAAATTAATTTTACTAAATTTAACATTGAATACGGAGTCACCTAGTGCAG	12800 fluorescence intensity (a.u.)
CACTTGACAGGTTCAGATGGCCTTCCTCCTACCGTCTGCCCGGAGTCACCTAGTGCAG	42200 fluorescence intensity (a.u.)
AGGAAATTGACAGGTGTGGAAATTGGGTCTTCCACAAAAGCGGAGTCACCTAGTGCAG	40600 fluorescence intensity (a.u.)
TTGATTTATAAACTTTAGGTTTCTAAACTTTGGATGTGTACGGAGTCACCTAGTGCAG	13800 fluorescence intensity (a.u.)
TCTCCGCAAAATAATTATATTGAAACTTGTAGTAGCAAGACGGAGTCACCTAGTGCAG	3610 fluorescence intensity (a.u.)
TAGAATAATTGAGGTCAGTCGTCCCTGGCCCCATATACTGCGGAGTCACCTAGTGCAG	20500 fluorescence intensity (a.u.)
GTAAATTATGTGAAAGTCTCCGAGCACCAGCCATTTTGAACGGAGTCACCTAGTGCAG	3880 fluorescence intensity (a.u.)
CGTTACATCGTTCTAATTTCAATCAAACTTCCAATTTTAACGGAGTCACCTAGTGCAG	6080 fluorescence intensity (a.u.)
CTCGGTGAGATAGATGGATGATGAGCTCAAATTTGTTGGGCGGAGTCACCTAGTGCAG	6900 fluorescence intensity (a.u.)
